Among all 4,800 compounds or so, about 410 (8.5%) showed an effect of 50% or more. Some of the results follow.
Tested on: Plasmodium falciparum
Experiment: Confirmatory screen in NF54 pLDH assay, in single point, at 2uM, 72h
Format: functional, Erythrocyte
Conditions: timepoint 72 hour

Row | Structure (SMILES) | % Inhibition [%]
1 | Cc1cc(=O)c(OCC(=O)N2CCN([C@@H](c3ccccc3)c3ccc(Cl)cc3)CC2)c[nH]1 | 74
2 | CC(CCc1ccccc1)N1C(=O)NC(=O)C2(Cc3c(ccc4ccccc34)N(C)C2)C1=O (configuration not stated) | 6
3 | COc1cnc(C(F)(F)F)nc1N1CCNCC1 | 9
4 | CCN1C[C@]2(COC)CC[C@H](OC)[C@@]34C5C[C@@H]6[C@@H](OC)C[C@@](O)(C5[C@H]6OC(=O)c5ccccc5)[C@@H](CC23)C14 (some centres not stated) | 13
5 | Cc1ccccc1[C@H](C)NC1=NCCO1 | 6
6 | CC1CCCCC1N1CCN(C(=O)COc2ccc(Br)cc2)CC1 (configuration not stated) | 10
7 | Cc1cccc(CN(C)C)c1OC(=O)N(C)C | 12
8 | Cc1cc(C(F)(F)F)c2c(C(N)=O)cn(C(C)(C)C)c2n1 | 11
9 | COc1ccc(-c2cc([C@H]3CN4CC[C@H]3C[C@@H]4CNC(=O)C3CCCCC3)n(C)n2)cc1OC | -17
10 | Cc1cc(C(=O)NC2CC(C)n3ccnc32)nn1C(C)C (configuration not stated) | 70
11 | CNCCc1cc(OC)c(OC)c2c1ccc1cc(OC)c(OC)cc12 | 7
12 | CN1CC2CN(Cc3ccccc3)CC(C1)C2=O | -5
13 | CN1CCC2CCN(C(=O)c3cc(C4CC4)on3)C2C1 (configuration not stated) | 13
14 | O=C(NC1CCCCC1)N1C[C@@H]2C[C@H](C1)c1c(-c3ccccc3F)ccc(=O)n1C2 | 2
15 | CCCC(=O)N(C(=O)CCC)c1ccc2[nH]c(=O)oc2c1 | -1
16 | CC1CN2CCCC2CN1C(=O)c1cc(C2CC2)on1 (configuration not stated) | -9
17 | Cc1nc(Cn2nc(C(C)(C)C)oc2=O)oc1C | 9
18 | CN(C)C(=O)CCCn1ccc(NC(=O)C2C(C)(C)C2(C)C)n1 | -14
19 | c1cc(-n2cnnn2)ccc1N[C@H]1CN2CCC1CC2 | -5
20 | CN(C)c1ccccc1NS(=O)(=O)c1c(Br)cc2[nH]c(=O)oc2c1Cl | 2
21 | CC1CCNC(=O)C1NC(=O)Nc1ccc(C#N)c(C(F)(F)F)c1 (configuration not stated) | 12
22 | O=C(N1CCN(C(c2ccccc2)c2ccccc2)CC1)C(O)(c1ccccc1)c1ccccc1 | -14
23 | CC[C@H]1C[N@@]2CC[C@H]1C[C@@H]2COC(=O)Nc1ccccc1 | 7
24 | O=C1CCN(C(=O)c2ccc(Cl)c(Cl)c2)CC1 | 12
25 | c1cc(N2CC[C@@]3(CCCNC3)C2)c2sccc2n1 | 98

Row | Structure (SMILES) | % Inhibition [%]
26 | Cc1ccc(Cl)c(NC(=O)N2CCC[C@H](c3n[nH]c(=O)o3)C2)c1 | 2
27 | O=C1O[C@@H]2CCN(Cc3ccccc3)[C@H]1C2 | -8
28 | CC(C)N1CCN(c2nc3nc[nH]c(=O)c3s2)CC1 | 12
29 | O=C1C2CCN(CC2)[C@H]1Cc1ccc(Cl)cc1 | 11
30 | COC(=O)COc1ccc(C#N)c(Cl)c1 | 1
31 | CC(=O)N(C1CCN(Cc2ccccc2)CC1)C1(C(=O)Nc2ccc3[nH]ccc3c2)CCN(C)CC1 | 101
32 | O[C@@]1(Cc2ccccc2)CN2CCC1CC2 | 3
33 | Cc1ccc(CN2CC(=O)N(C)CC23CCCCC3)nc1 | -19
34 | C=CCN(C)C[C@H]1CN2CC[C@H]1C[C@@H]2CNC(=O)Nc1ccc(OC(F)(F)F)cc1 | 17
35 | C=CCCC(CN1C[C@H]2CC=CC[C@H]2C1)Oc1ncc(F)cn1 (some centres not stated) | 64
36 | CCC1(CC)C(=O)N(CN2CCCC2=O)C(=O)N(CN2CCCC2=O)C1=O | -10
37 | CN(C)S(=O)(=O)Nc1cccc(OC(=O)N2CCOCC2)c1 | -17
38 | CN1CC2(CN(Cc3cnc4ccc(Cl)cn34)C2)OC1=O | 6
39 | CCOc1ccccc1N1C(=O)NC(=O)[C@@]2(Cc3cc(C)ccc3N(C)C2)C1=O | -7
40 | Clc1ccc(C2CC(c3cccnc3)Nc3nnnn32)cc1 (configuration not stated) | -12
41 | CC[C@H]1C[N@@]2CC[C@H]1C[C@@H]2COC(=O)Nc1ccc(C(C)(C)C)cc1 | 8
42 | Cc1ccc(NC(=O)N2CCC(=O)CC2)cc1Br | 1
43 | Cn1nc(OC(=O)Nc2ccccc2)cc1C(F)(F)F | 6
44 | CN1CC[C@]2(CCN(c3ccnc4ccsc34)C2)C1 | 97
45 | CN1CCC(N(C)C2CCCCC2N(C)C(=O)Cc2ccc(O)cc2)CC1 (configuration not stated) | 4
46 | CC(C)N1C(=O)NC(=O)C2(Cc3ccccc3N3CCN(Cc4ccccc4)CC32)C1=O (configuration not stated) | 19
47 | CN1CCc2nc3ccc(F)cc3c(C(N)=O)c2C1 | -10
48 | O=C1CCN(C(=O)c2ccc(F)c(Cl)c2)CC1 | 13
49 | COC(=O)[C@H]1CN(Cc2noc(C)n2)C[C@@H]1c1ccc(F)cc1F | -16
50 | COc1ccc(-c2ccccc2N2CCNCC2)c2ccc(C)nc12 | 10

Row | Structure (SMILES) | % Inhibition [%]
51 | CC(C)c1nc(CC(=O)N2CCN(Cc3nnc4n3CCCCC4)CC2)cs1 | -12
52 | O=S(=O)(NC12CCCC1CNC2)c1onc(C2CC2)c1Cl (configuration not stated) | 97
53 | O=C1N[C@](c2ccccc2)(C(F)(F)F)c2ccc3ccccc3c2O1 | 14
54 | CNc1snc(C)c1C(=O)N1CCC(C(=O)OC)(c2ccccc2)CC1 | 4
55 | COc1cc(=O)c(C(=O)N2CCC3(CC2)OCCO3)nn1-c1ccc(C)cc1 | -1
56 | FC1(F)C[C@@H](COc2cccnc2)N(C2CCCCC2)C1 | 12
57 | CC[C@H](O)c1c[nH]c(C(=O)C(Cl)(Cl)Cl)c1 | 1
58 | O=C(Cc1cnc2ccccn12)N1C[C@H]2CC[C@@H](C1)N(Cc1ccccn1)C2 | 20
59 | CC(=O)N1N=C(c2cccnc2)O[C@H]1c1ccc(F)cc1 | -20
60 | CCn1nccc1CNCCc1ccccc1 | 8
61 | Cc1ccc2c(c1)CCCN2C(=O)CN1CC=C(c2cnn(C)c2)CC1 | 37
62 | CCC(CC)c1cc([C@H]2CN3CC[C@H]2C[C@@H]3CNC(=O)Cc2cccs2)nc(-c2ccncc2)n1 | 7
63 | Cc1nn(C)cc1/C=C1\CC2C3CCC4CC(O)CCC4(C)C3CCC2(C)C1O (configuration not stated) | 7
64 | Nc1ccc(N2CCN3CCC[C@H]3C2)cc1 | 22
65 | O=c1c2cc(Cl)ccc2nc(-c2cccnc2)n1-c1ccc(Br)cc1 | 4
66 | Cn1cc(Br)cc1C(=O)C(Cl)(Cl)Cl | -6
67 | CC(Cc1ccccc1)NC1CN2CCC1CC2 (configuration not stated) | 13
68 | COc1cccc(CNC(=O)N2CC[C@@H]3CCN(C)C[C@@H]32)n1 | 7
69 | COC(=O)CNc1cc(C)c([C@@](O)(C(=O)OC)C(F)(F)F)cc1OC | 6
70 | COC(=O)C(O)(c1ccc2c(c1)C(O)(C(F)(F)F)C(=O)N2C(C)C)C(F)(F)F (configuration not stated) | 7
71 | C[N+]12CCC(CC1)[C@@H](C(O)(c1cccc(Cl)c1)c1cccc(Cl)c1)C2 | 25
72 | CN(C)[C@@H](Cn1c(=O)[nH]c2ccccc2c1=O)c1ccco1 | -13
73 | O=C(NCc1ccc(Br)cn1)[C@H]1NCC12CCCC2 | 4
74 | COc1cc(OCC(=O)N2CCN([C@@H](C)Cc3ccccc3)CC2)cc(OC)c1OC | 3
75 | CCCC(=O)N(C1=CC2CCC(C1)N2C)c1ccccc1 (configuration not stated) | 8

Row | Structure (SMILES) | % Inhibition [%]
76 | O=C1N(c2ccccc2)C(=O)C2(Cc3cc(C(F)(F)F)ccc3N3CCC(c4ccccc4)CC32)C(=O)N1c1ccccc1 (configuration not stated) | 4
77 | CN1CCC2(CC1)CNc1ccccc12 | 0
78 | Clc1cccc(CCN[C@H]2CCOC3(CCOCC3)C2)c1 | 10
79 | C[C@@H]1N=C(c2ccccc2)c2cc(Cl)ccc2N(CC(=O)Nc2cccc(C(F)(F)F)c2)C1=O | 11
80 | CCCCC1(CCCC)C(=O)NC(=Nc2ccc(C)cc2)NC1=O | -20
81 | O=c1[nH]c2cc(NS(=O)(=O)c3ccc(C4CCCCC4)cc3)ccc2o1 | -14
82 | CCN1CCC[C@H](NC(C2CCC2)C2CCC2)C1 | 10
83 | CN1CCN(CCO[C@@H](c2cccc(Cl)c2)c2ccccc2Cl)CC1 | 9
84 | O=C1CO[C@H]2CCN(Cc3cn4ccc(Br)cc4n3)C[C@@H]2N1 | 8
85 | CCC(CC)c1cc([C@H]2CN3CC[C@H]2C[C@@H]3CNS(=O)(=O)Cc2ccccc2)nc(-c2ccncc2)n1 | 60
86 | C[C@@H](Cc1ccc(O)cc1)NCc1cc[nH]n1 | 12
87 | COc1snc(C(Cl)(Cl)Cl)c1Cl | 0
88 | O=C(NCc1cc(F)cc(F)c1)c1cn(Cc2ccc(F)cc2)nn1 | -22
89 | CCN(CC)CCC1C(=O)N(c2ccccc2)C(=O)N(c2ccccc2)C1=O | 8
90 | CCOc1ccccc1NC(=O)c1cn(Cc2ccc(N)cc2)cn1 | 6
91 | O=C(c1ccccc1)c1cc(Cl)ccc1NC(=O)[C@H]1CC(=O)N(c2ccc(F)cc2)C1 | 96
92 | Cn1cc(/C=C2\CC3C4CCC5CCCCC5(C)C4CCC3(C)C2O)cn1 (configuration not stated) | 6
93 | CCn1cnc2c(N3C4CCC3C(C(=O)OC(C)(C)C)C4)ncnc21 (configuration not stated) | -8
94 | C=CC1CN2CCC1CC2C12Nc3ccccc3C1(O)CCO2 (configuration not stated) | -15
95 | CCN(CC)C(=O)Oc1cc2nnnn2nc1-c1ccccc1 | 6
96 | Cc1ccc(C2CC(c3cccnc3)Nc3ncnn32)cc1 (configuration not stated) | 7
97 | Cc1ccc(C(O)(c2ccc(C)c(C)c2)[C@H]2C[N@]3CC[C@@H]2CC3)cc1C | 11
